# Screen size: about 420,000 compounds; about 64,000 (15%) were called active. Inconclusive means that the source gave no clear call. Such entries were picked first, then a sample of the others. Calls come from the whole dose curve; as a rule, active = well fitted inhibition curve with a large enough effect; inconclusive = small, poorly fitted or top-dose-only effect; inactive = flat fitted curve, though single readings scatter. Potencies of inconclusive entries are left out as doubtful fits.
# Test: qHTS for Inhibitors of human tyrosyl-DNA phosphodiesterase 1 (TDP1): qHTS in cells in absence of CPT; note: nearly all actives have a fitted effect of over 55% in size
# Details: DT40 Tdp1-/- hTDP1 cells, no CPT, ATP luminescence, 48 h; activity change, negative = growth inhibition: at 46.2 µM (top of the series) unless noted
# Method in brief: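 Seeded 400 DT40-hTDP1 cells/well (vehicle DMSO, no 20 nM CPT); pinned compounds; ≥48 hr at 37 °C; CellTiter-Glo luminescence as viability measure.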
# % is set by controls: 0 for no effect and ±100 for the full control effect; potency is the fitted concentration of half-maximal effect; tags give direction and shape of the fitted curve.
SMILES,Potency,"activity change, negative = growth inhibition"
C=CCC[C@H](Cc1ccc(F)cc1)C(=O)OC[C@H](C)NC(=O)[C@H](CC=C)CC(=O)NCCO,"inconclusive [inhibitor, single point]",–
COc1ccc(C2(C(=O)NCCc3ccccc3)CCCC2)cc1,"inconclusive [inhibitor, single point]",–
Cc1coc2c(C)c3oc(=O)c(CCC(=O)NCc4ccccn4)c(C)c3cc12,"inconclusive [inhibitor, single point]",–
Cc1ccc(-c2cc3ncc(C(=O)c4cc(Cl)c(C)cc4O)cn3n2)cc1,–,inactive: -23.9%
COc1cc(CNC(C)(C)CO)ccc1OCC(=O)Nc1ccc(Br)cc1,"inconclusive [inhibitor, single point]",–
Cc1ccc(Cl)cc1NC(=O)C(Cc1ccccc1)NS(=O)(=O)c1cccc2nsnc12 (stereo not drawn),"inconclusive [inhibitor, single point]",–
Cc1cccc(N2CCN(CC(=O)Nc3ccccc3[N+](=O)[O-])CC2)c1C,"inconclusive [inhibitor, single point]",–
COc1cccc(CN=c2c([N+](=O)[O-])nn(-c3ccccc3C)n2O)c1,"inconclusive [inhibitor, single point]",–
O=C(c1ccco1)N1CCCC(c2nc3c(nnn3Cc3ccccc3)c(=O)[nH]2)C1 (stereo not drawn),–,inactive: 4.14%
COc1ccc(-c2nc3cnccn3c2Nc2ccc(C)cc2)cc1,active: 14.6 µM,–
CCOC(=O)N1CCN(C(=O)CCN2C(=O)COc3ccc(C)cc32)CC1,–,inactive: -0.871%
CC(C)N1C/C(=C/c2cccnc2)C(=O)/C(=C/c2cccnc2)C1,active: 1.64 µM,–
COc1ccc(CCNC2CCC(c3ccccc3)CC2)cc1 (stereo not drawn),"inconclusive [inhibitor, single point]",–
COc1ccc(C)cc1NC(=O)c1c2c(nc3ccccc13)C(=O)N(C1CCCCC1)C2,active: 3.66 µM,–
COc1ccccc1C(=O)N/C(=C\c1ccc2c(c1)OCO2)C(=O)NCCc1nc2ccccc2[nH]1,"inconclusive [inhibitor, partial curve]",–
COc1ccc(OC)c(C2Nc3c(C)cc(C)cc3-c3cc(C)nn32)c1 (stereo not drawn),active: 20.6 µM,–
Cc1ccc(-c2nc3ccc(C(=O)O)cc3nc2-c2ccc(C)cc2)cc1,"inconclusive [inhibitor, single point]",–
C/C(N)=C(/C#N)C(=O)CSc1nc2ccccc2c(=O)n1-c1ccc(C)c(Cl)c1,"inconclusive [inhibitor, single point]",–
CCSc1nc2ccccc2n1CCOc1ccccc1,"inconclusive [inhibitor, single point]",–
CCN(CC)C(=O)c1cccc(-c2csc(C(O)c3cccc(OC)c3)n2)c1 (stereo not drawn),active: 4.61 µM,–
COC(=O)CN1C(=O)[C@H]2[C@@H](c3ccc(C)o3)N3C(=O)CN(Cc4ccccc4)C(=O)[C@@]3(Cc3ccccc3)[C@H]2C1=O,"inconclusive [inhibitor, partial curve, poor fit]",–
Cc1cccc(C(=O)OCC(=O)NC(C)C2CC3CCC2C3)c1O (stereo not drawn),active: 16.4 µM,–
Cc1ccccc1NC(=O)CN1C(=O)COc2ccc(S(=O)(=O)N3CCCC3)cc21,–,inactive: -1%

SMILES,Potency,"activity change, negative = growth inhibition"
CCc1c(C)sc2c1CCN(C(=O)Nc1ccccc1C(=O)OC)C2c1ccc(OC)cc1 (stereo not drawn),"inconclusive [inhibitor, single point]",–
CCC(CC)(CC(=O)Nc1cccc(/C=C/c2nc(C3CCC3)cs2)c1)C(=O)O,–,inconclusive: -33.6% [inhibitor]
O=C(O)C1CCCCC1C(=O)Nc1ccccc1Cl (stereo not drawn),–,inactive: -13.1%
COc1ccccc1S(=O)(=O)Cc1ccc(C(=O)NCc2ccccc2)o1,–,inactive: 11.2%
CC(NC(=O)c1ccccc1)C(c1cccs1)N1CCOCC1 (stereo not drawn),–,inactive: 1.6%
O=C(NCCCN1CCc2ccccc2C1)Nc1ccc(Br)cc1,"inconclusive [inhibitor, single point]",–
CC(C)c1ccc(C2=CC(c3cccc(Cl)c3)n3c(nc4ccccc43)N2)cc1 (stereo not drawn),active: 16.4 µM,–
COc1ccccc1CN1CCC2(CCNCC2)CC1,"inconclusive [inhibitor, single point]",–
Cc1ccc(Cl)cc1N1CCN(C(=O)c2cc3ccc4cccnc4c3[nH]2)CC1,"inconclusive [inhibitor, single point]",–
O=C1CC(C(=O)N2CCOc3ccc(CN4CCC(Oc5cccnc5)CC4)cc3C2)c2ccccc21 (stereo not drawn),"inconclusive [inhibitor, single point]",–
O=[N+]([O-])c1ccccc1OC/C(=N\O)c1ccccc1,"inconclusive [inhibitor, partial curve, poor fit]",–
CCC(=O)N1CCc2cc(Br)cc(S(=O)(=O)N3CCCC(C(=O)Nc4cc(C)ccc4OC)C3)c21 (stereo not drawn),"inconclusive [inhibitor, partial curve]",–
CCOc1ccc(NC(=O)CN2C(=O)C(c3ccc(Cl)cc3)=NC2(C)C)cc1,"inconclusive [inhibitor, single point]",–
C=C(C)c1cccc(C(C)(C)NC(=O)N2CCN(c3ccccc3)CC2)c1,"inconclusive [inhibitor, single point]",–
FC(F)(F)COc1nc(N2CCOCC2)nc(N(c2ccccc2)c2ccccc2)n1,active: 20.6 µM,–
O=C(NCc1ccc(Cl)cc1)C1=Cc2cc(Br)ccc2OC1,"inconclusive [inhibitor, single point]",–
CC12CCC(=O)N1C(C(=O)NNC(=O)COc1ccc(Br)cc1)CS2 (stereo not drawn),–,inactive: -20.2%
CCn1c(=O)cc(OCC(=O)N(C)c2ccc(OC)cc2)c2ccccc21,"inconclusive [inhibitor, single point]",–
CCNC(=O)OCCC12CC3CC(CC(C3)C1)C2,"inconclusive [inhibitor, single point]",–
COC(=O)[C@]12CCCCC=C1N(CCC1=CCCCC1)C(=O)[C@H](CC(=O)N1CCOCC1)C2,"inconclusive [inhibitor, single point]",–
O=C1CN(C(=O)c2cc(F)cc(F)c2)c2ccccc2N1,"inconclusive [inhibitor, partial curve, poor fit]",–
CC(C)(CO)NCc1cccs1,"inconclusive [inhibitor, single point]",–
Cc1ccc(-c2nnc(NCc3nc4ccccc4[nH]3)c3ccccc23)cc1S(=O)(=O)N(C)C,active: 23.1 µM,–

SMILES,Potency,"activity change, negative = growth inhibition"
Oc1cccc(/C=N/N=C/c2cccc(O)c2O)c1O,"inconclusive [inhibitor, single point]",–
COc1ccc(-c2nc(CN3CCC(C(=O)NC4CCCc5ccccc54)CC3)c(C)o2)cc1OC (stereo not drawn),"inconclusive [inhibitor, single point]",–
COc1ccc(-c2nc(C)c(C(C)=O)n2O)cc1,"inconclusive [inhibitor, partial curve]",–
Cc1ccccc1NC(=O)c1cc([N+](=O)[O-])ccc1NCCN1C(=O)CCC1=O,–,inactive: -23.5%
CCN(C(=O)COc1ccc(N(C)S(=O)(=O)c2ccc(NC(C)=O)cc2)cc1)C1CCCCC1,"inconclusive [inhibitor, single point]",–
CCCC(C)c1nnc(NC(=O)C2CC(=O)N(CCc3ccc(F)cc3)C2)s1 (stereo not drawn),"inconclusive [inhibitor, single point]",–
CN(CC(=O)Nc1cccc(S(=O)(=O)NC2=NCCCCC2)c1)Cc1ccc(C(C)(C)C)cc1,active: 20.6 µM,–
Cc1ccn(CCC(=O)NC2CCCc3c2cnn3-c2cccc(C)c2C)n1 (stereo not drawn),–,inactive: -0.642%
CC(=O)c1sc(Nc2cccc(C)c2)nc1C,–,inactive: 3.92%
O=C(CNC(=O)c1ccccc1Br)N/N=C/c1cc(Br)ccc1O,active: 5.8 µM,–
CCc1nc2ccccc2c(C(=O)OCCN2C(=O)c3ccccc3C2=O)c1C,"inconclusive [inhibitor, partial curve]",–
NC(=S)Cc1nc(-c2ccc(Cl)cc2)cs1,"inconclusive [inhibitor, single point]",–
Cc1cccc([C@@H]2[C@@H]3C(=O)N(Cc4ccccc4)C(=O)[C@@H]3[C@]3(Cc4ccc(Cl)cc4)C(=O)N(c4cccc(Br)c4)C(=O)N23)c1,–,inactive: -12.3%
CC(=O)Nc1cc(-c2cccc(F)c2)cn2c(-c3ccc(F)c(Cl)c3)cnc12,"inconclusive [inhibitor, single point]",–
CN(C)CCCn1c(SCC(=O)Nc2nccs2)nnc1-c1ccncc1,–,inactive: -7.91%
CCc1nc2ccc(C(=O)N3CCN(C(C)=O)CC3)cn2c1N(C)C(=O)c1cccc(OC)c1,–,inactive: -0.452%
CCc1cc(C(=O)c2ccc(Br)cc2)c(NC(=O)CN(CC)CC)s1,–,inactive: -24.4%
C=CCn1c(C)cc(C(=O)COC(=O)c2ccc3c(c2)NC(=O)CS3)c1C,active: 16.4 µM,–
Cc1ccc(C)c(C(O)c2ncc(-c3cccc(C(F)(F)F)c3)[nH]2)c1 (stereo not drawn),"inconclusive [inhibitor, single point]",–
CC[C@H](C)NC(=O)c1ccc(Cn2c(=S)[nH]c3c([nH]c4ccc(OC)cc43)c2=O)cc1,–,inactive: 3.19%
C[C@H](CO)N1C[C@H](C)[C@@H](CN(C)C(=O)Nc2ccc(C(F)(F)F)cc2)Oc2ccc(NC(=O)Nc3ccc4c(c3)OCO4)cc2C1=O,"inconclusive [inhibitor, single point]",–
COc1ccc(OC)c(CNC(=O)c2ccc3nc(C(C)C)oc3c2)c1,active: 23.1 µM,–
